The supplement of paper PMC11417369
± gives the standard deviation of the averaged measurements. Some of the results follow.

What follows are sequences tested on PfAP2-G AP2 domain (GST-tagged) (assay: gcPBM binding intensity (ln(normalized median fluorescence intensity)); higher = stronger DNA binding).
Method in brief: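 Binding intensity is the highest Masliner-normalised natural-log median intensity over replicate spots in either probe orientation. To obtain it, GST-tagged P. falciparum DNA-binding domains made in E. coli were incubated for 1 h on an Agilent 4 × 180k array of primer-extended double-stranded 36-bp intergenic genomic probes plus negative controls. Detection used Alexa488 anti-GST antibody with scanning at 488 nm.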
“TTTTTTTTTTGATGAGCACACATGTTTTTTCTTAGA [CACACA_site3171]” was tested, and the “gcPBM binding intensity (ln)” value was 10.3 ± 0.29. For “AAAAAATATTTATGTTCACACATTTTATATATGATA [CACACA_site4821]”, the “gcPBM binding intensity (ln)” value was 9.905 ± 0.049. “TAATGTTGTTTCTGAGGTACACAATTTTTTTTATTT [XGTACX_site8035]” was tested, and the “gcPBM binding intensity (ln)” value was 11.2 ± 0.83. In the case of “TTAATGAAATATTATACACACAAAAAAATAATTTTA [CACACA_site4231]”, the “gcPBM binding intensity (ln)” value is reported as 9.915 ± 0.092. “TACACTTTTTTTTGTACACACTAAAAAGATTAACAA [CACACA_site6037]” was tested, and the “gcPBM binding intensity (ln)” value was 11.3 ± 0.82. For “TATATATATGGACACACACACACCAAAGCGTAGCGC [CACACA_site4209]”, the “gcPBM binding intensity (ln)” value was 10.9 ± 0.69. “GCGTATACTTGTAACGGTACACAGGAAATTATAGAA [XGTACX_site507]” was tested, and the “gcPBM binding intensity (ln)” value was 10.9 ± 0.61. In the case of “TCTTTGTTTTTTTTTTTTAAACAAAATCATCAAAGG [XGTACX_negctrl_site192]”, the “gcPBM binding intensity (ln)” value is reported as 9.88 ± 0.35. For “AAGATACACCTTTTTAGTACTTACATTTTTTTTATT [XGTACX_site1373]”, the “gcPBM binding intensity (ln)” value was 11.4 ± 0.68. For “AATAAATATATATACACACCCATATATATATATATA [CACACA_site2595]”, the “gcPBM binding intensity (ln)” value was 10.2 ± 0.35. With “TATACTTGTAAATGCACACATAAGATGCGACTAATG [CACACA_site2118]” the “gcPBM binding intensity (ln)” value was 10.15 ± 0.049. For “AAAAAAATAAAGGATATACACACTAATTATATATAT [CACACA_site2812]”, the “gcPBM binding intensity (ln)” value was 9.83 ± 0.057. “ACCATACAGAATAATGCATGTTCCTTTTTATGAATA [TGCATGCA_site995]” was tested, and the “gcPBM binding intensity (ln)” value was 9.915 ± 0.021. For “AGATTATAAAATTCTACACACATATATACCTATATA [CACACA_site5848]”, the “gcPBM binding intensity (ln)” value was 9.79 ± 0.071. In the case of “CTGTGTTTTGGTTGTACACACGCTACATTCTATATT [CACACA_site2698]”, the “gcPBM binding intensity (ln)” value is reported as 11.5 ± 0.91. “AAAATAATTGTTTACACACCCATTTGTAATTTTACC [CACACA_site3614]” was tested, and the “gcPBM binding intensity (ln)” value was 10.03 ± 0.071. “CCAACATAGAGGGGCACACACATATATACCTAAAAA [CACACA_site5088]” was tested, and the “gcPBM binding intensity (ln)” value was 10.7 ± 0.51. For “AATGCTTTTCATCAAGTGCAATATGTTAATACAAAC [GTGCAC_site9619]”, the “gcPBM binding intensity (ln)” value was 10.1 ± 0.24. With “ATTTACATTATATTGAATATGCCATATTATATTATT [CACACA_negctrl_site811]” the “gcPBM binding intensity (ln)” value was 9.735 ± 0.021. For “TCTAACATATTTTTAATACACACTTAAAAAAGTACT [CACACA_site1366]”, the “gcPBM binding intensity (ln)” value was 10.9 ± 0.49. In the case of “ATAGACTTTTGTTTTGTTTTATTTTATTGTATTGTA [CACACA_negctrl_site618]”, the “gcPBM binding intensity (ln)” value is reported as 9.76 ± 0.18. “ATATTATATTGGATGTTGCACTTAACAAAAGGATAT [GTGCAC_site9478]” was tested, and the “gcPBM binding intensity (ln)” value was 10.2 ± 0.23. “TATAAAAGTAGACACACACACATATAAATATAAATA [CACACA_site6567]” was tested, and the “gcPBM binding intensity (ln)” value was 10.3 ± 0.54. With “TCTATATCAACCAGTTGTACTGAATTTACTATATTT [XGTACX_site4205]” the “gcPBM binding intensity (ln)” value was 11 ± 0.67. “GTAGACTGAAACCACACACACATATATAAATATATT [CACACA_site6433]” was tested, and the “gcPBM binding intensity (ln)” value was 10.2 ± 0.16. In the case of “AAAAAAAAAAATGGTTGTACTTTTTTTATTTGGTGC [XGTACX_site4498]”, the “gcPBM binding intensity (ln)” value is reported as 11.6 ± 1. For TGTATGTATAATTGAGTGCACAGAAAAAAAAAAGAA, the “gcPBM binding intensity (ln)” value was 10.6 ± 0.54. In the case of “TAATATATATATATTACACACACGTATTATTAAATA [CACACA_site432]”, the “gcPBM binding intensity (ln)” value is reported as 10.4 ± 0.21. For “AGAAAAAAAAAAAAAAAACACACGGTACATTCAAAG [CACACA_site2]”, the “gcPBM binding intensity (ln)” value was 10.5 ± 0.2. “TAATTTTCATATTTCTGTACATATATTATAAATATA [XGTACX_site3480]” was tested, and the “gcPBM binding intensity (ln)” value was 11 ± 0.69. For “AATAAAAAAGAATATACACACATAAATATAAAATAT [CACACA_site683]”, the “gcPBM binding intensity (ln)” value was 9.82 ± 0.22. For “ATATATATATATATGTGTACTAATAAGGTTAAATAA [XGTACX_site1535]”, the “gcPBM binding intensity (ln)” value was 11.3 ± 0.76. “AAATATATATTTCTTAGTACATATGTATTTTTTTTT [XGTACX_site938]” was tested, and the “gcPBM binding intensity (ln)” value was 10.8 ± 0.49. With “AATTAAAAAGAAAAAAGTACATATTTTTTTAAAAAA [XGTACX_site7384]” the “gcPBM binding intensity (ln)” value was 11.4 ± 0.61. With “TTTGACAAATTATTGTGTACACAATATTATTATATA [XGTACX_site8320]” the “gcPBM binding intensity (ln)” value was 11.7 ± 1. In the case of “ACAAAATGTAGATATTGTACATATTGTAGATATTGT [XGTACX_site7619]”, the “gcPBM binding intensity (ln)” value is reported as 10.9 ± 0.53. In the case of “ACCTATATAAGTTATACACACAAATATAGATATATA [CACACA_site7356]”, the “gcPBM binding intensity (ln)” value is reported as 10 ± 0.16. In the case of “TAATATTAATCCTAGTGTACATTAATTTATATGTAT [XGTACX_site3583]”, the “gcPBM binding intensity (ln)” value is reported as 11.3 ± 0.72. “ATTATATATATATAAACACACAAATATTTTTATATA [CACACA_site5005]” was tested, and the “gcPBM binding intensity (ln)” value was 9.52 ± 0.33. “TTTATATGTATTAAGTGTACACATATAATGTGTTTG [XGTACX_site6629]” was tested, and the “gcPBM binding intensity (ln)” value was 11.5 ± 0.86. For “TATAAGAGGATATATACACACAAAAATATGTACAGT [CACACA_site6885]”, the “gcPBM binding intensity (ln)” value was 11.5 ± 0.92. With “TTATTTTTTTTTTATTGTACTAGGAAAATTTCGATA [XGTACX_site702]” the “gcPBM binding intensity (ln)” value was 10.9 ± 0.64. For “ATTTAAGATTTAATCACACACATATAGATTATAGAC [CACACA_site7383]”, the “gcPBM binding intensity (ln)” value was 10.1 ± 0.14. For “ATGAAGAAGTGTAAATGTACATTTTATGTAGAACAA [XGTACX_site6925]”, the “gcPBM binding intensity (ln)” value was 10.9 ± 0.43.
